Structures can show the parent of a compound that is named as a salt. ± gives the standard deviation of the averaged measurements. The list shows a part of the results. Many values rest on one well or one pass, so single values are uncertain.

Test systems include OVCAR4; Ov4Carbo; Ov4Cis.
Assay in all cases: log2 surviving fraction relative to plate median (drug vs vehicle, or drug+dl922-947 vs dl922-947 alone); ovarian cancer lines: OVCAR4 is platinum-sensitive while Ov4Cis resists cisplatin and Ov4Carbo carboplatin; higher = more cell survival
Details in all cases: compound concentration: 10 uM, 192 h

[1] abbreviates: dl922-947 oncolytic adenovirus co-treatment: MOI 10.
Setting [2] is: dl922-947 oncolytic adenovirus co-treatment: none.

Consider `CCN1CCN(c2cc(-c3ccc(F)cc3)c3c(n2)CCCCCC3)CC1` [Blonanserin (Lonasen)], for which the log2 surviving fraction with OVCAR4 (setting [1]) is -0.505 ± 0.37; with OVCAR4 (setting [2]), 0.24 ± 0.071; with Ov4Carbo (setting [1]) it was 0.127; in the experiment with Ov4Carbo (setting [2]), -2.09; in the experiment on Ov4Cis (setting [1]), -0.563; with Ov4Cis (setting [2]), 0.476.
`NS(=O)(=O)c1cc2c(cc1C(F)(F)F)NC(Cc1ccccc1)NS2(=O)=O` (configuration not stated) [Bendroflumethiazide]: the log2 surviving fraction with OVCAR4 (setting [1]) was 1.03 ± 1.2; in the experiment on OVCAR4 (setting [2]) it was 1.38 ± 1.9; in the experiment on Ov4Carbo (setting [1]) it was -0.321; in the experiment with Ov4Carbo (setting [2]) it was 1.04; in the experiment on Ov4Cis (setting [1]) it was 0.294; in the experiment on Ov4Cis (setting [2]) it was 0.618.
In the case of `CC(C)(C(=O)O)c1ccc(C(O)CCCN2CCC(C(O)(c3ccccc3)c3ccccc3)CC2)cc1` (configuration not stated) [Fexofenadine HCl], the log2 surviving fraction in the experiment with OVCAR4 (setting [1]) is -0.213 ± 0.84; in the experiment with OVCAR4 (setting [2]) it was -0.215 ± 0.8; in the experiment on Ov4Carbo (setting [1]), 0.246; in the experiment with Ov4Carbo (setting [2]) it was -0.352; in the experiment with Ov4Cis (setting [1]) it was -0.43; in the experiment on Ov4Cis (setting [2]), 0.0423.
Turning to `COc1ccc(OC)c(C(O)C(C)N)c1` (configuration not stated) [Methoxamine HCl], the log2 surviving fraction in the experiment with OVCAR4 (setting [1]) is 0.383 ± 1.1; in the experiment on OVCAR4 (setting [2]) it was -3.11 ± 4.9; in the experiment with Ov4Carbo (setting [1]) it was 0.34; with Ov4Carbo (setting [2]) it was 0.687; in the experiment with Ov4Cis (setting [1]), 0.183; with Ov4Cis (setting [2]) it was -0.327.
In the case of `Cn1c(=O)c2c(ncn2CC(O)CO)n(C)c1=O` (configuration not stated) [Dyphylline (Dilor)], the log2 surviving fraction is -0.321 ± 1 with OVCAR4 (setting [1]); 0.261 ± 0.032 in the experiment with OVCAR4 (setting [2]); 0.0923 in the experiment on Ov4Carbo (setting [1]); -0.12 in the experiment with Ov4Carbo (setting [2]); -0.155 in the experiment with Ov4Cis (setting [1]); 0.0375 in the experiment with Ov4Cis (setting [2]).
For the compound `CCC[S+]([O-])c1ccc2[nH]c(NC(=O)OC)nc2c1` (configuration not stated) [Albendazole Oxide (Ricobendazole)], the log2 surviving fraction in the experiment on OVCAR4 (setting [1]) was -0.365 ± 0.28; in the experiment with OVCAR4 (setting [2]) it was -0.979 ± 0.34; with Ov4Carbo (setting [1]), -0.443; in the experiment on Ov4Carbo (setting [2]) it was -2.58; with Ov4Cis (setting [1]) it was -0.597; in the experiment with Ov4Cis (setting [2]), -0.687.
Take `O=C(O[C@H]1C[N+]2(CCCOc3ccccc3)CCC1CC2)C(O)(c1cccs1)c1cccs1` [Aclidinium Bromide]: the log2 surviving fraction with OVCAR4 (setting [1]) was 0.704 ± 0.3; in the experiment on OVCAR4 (setting [2]), 0.22 ± 2.9; in the experiment with Ov4Carbo (setting [1]), -0.512; in the experiment on Ov4Carbo (setting [2]) it was 0.882; in the experiment with Ov4Cis (setting [1]), 0.665; with Ov4Cis (setting [2]), 0.0258.
`CC1CC(OC(=O)C(O)c2ccccc2)CC(C)(C)C1` (configuration not stated) [Cyclandelate]: the log2 surviving fraction was 0.0607 ± 0.54 with OVCAR4 (setting [1]); -0.147 ± 0.99 with OVCAR4 (setting [2]); 0.163 in the experiment with Ov4Carbo (setting [1]); 0.2 in the experiment with Ov4Carbo (setting [2]); 0.127 with Ov4Cis (setting [1]); 0.226 in the experiment with Ov4Cis (setting [2]).
`CCOC(=O)C1=C(C)NC(C)=C(C(=O)OC)C1c1cccc([N+](=O)[O-])c1` (configuration not stated) [Nitrendipine]: the log2 surviving fraction with OVCAR4 (setting [1]) is 0.173 ± 0.38; with OVCAR4 (setting [2]), 0.171 ± 0.13; with Ov4Carbo (setting [1]), -0.15; with Ov4Carbo (setting [2]) it was -0.0634; in the experiment on Ov4Cis (setting [1]) it was -0.211; with Ov4Cis (setting [2]), -0.356.
With `CCCCC(=O)O[C@]1(C(=O)CO)[C@@H](C)C[C@H]2[C@@H]3CCC4=CC(=O)C=C[C@]4(C)[C@@]3(F)[C@@H](O)C[C@@]21C` [Betamethasone valerate (Betnovate)], the log2 surviving fraction in the experiment on OVCAR4 (setting [1]) was 1.03 ± 0.48; with OVCAR4 (setting [2]), 0.695 ± 0.96; in the experiment on Ov4Carbo (setting [1]), 0.263; in the experiment with Ov4Carbo (setting [2]) it was -0.177; in the experiment on Ov4Cis (setting [1]) it was 1.78; with Ov4Cis (setting [2]), -0.791.
For `CNC(=O)c1cc(Oc2ccc(NC(=O)Nc3ccc(Cl)c(C(F)(F)F)c3)cc2)ccn1` [Sorafenib (Nexavar)], the log2 surviving fraction in the experiment on OVCAR4 (setting [1]) is -3.7 ± 1.2; in the experiment on OVCAR4 (setting [2]), -7.9 ± 1.3; in the experiment on Ov4Carbo (setting [1]), -6.97; with Ov4Carbo (setting [2]), -9.85; in the experiment with Ov4Cis (setting [1]) it was -4.15; in the experiment with Ov4Cis (setting [2]), -11.7.
As for `COc1c(C)c2c(c(O)c1C/C=C(\C)CCC(=O)O)C(=O)OC2` [Mycophenolic (Mycophenolate)], the log2 surviving fraction in the experiment on OVCAR4 (setting [1]) is -2.87 ± 1.1; with OVCAR4 (setting [2]) it was -5 ± 0.62; in the experiment on Ov4Carbo (setting [1]), -2.76; in the experiment on Ov4Carbo (setting [2]) it was -8; with Ov4Cis (setting [1]) it was -3.03; with Ov4Cis (setting [2]) it was -5.29.
For the compound `CN(C)[C@@H](CCOc1cccc2ccccc12)c1ccccc1` [Dapoxetine hydrochloride (Priligy)], the log2 surviving fraction with OVCAR4 (setting [1]) was -0.827 ± 0.7; in the experiment with OVCAR4 (setting [2]) it was -1.19 ± 0.33; with Ov4Carbo (setting [1]) it was -1.27; with Ov4Carbo (setting [2]), -1.5; with Ov4Cis (setting [1]), -2.25; with Ov4Cis (setting [2]), -1.61.
Take `CN1[C@@H]2CC(O)C[C@H]1[C@@H]1O[C@@H]12` (some centres not stated) [Scopine]: the log2 surviving fraction in the experiment with OVCAR4 (setting [1]) was 0.195 ± 0.74; with OVCAR4 (setting [2]), -0.379 ± 0.16; in the experiment with Ov4Carbo (setting [1]) it was 1.37; in the experiment on Ov4Carbo (setting [2]), 0.0227; in the experiment with Ov4Cis (setting [1]) it was 0.283; with Ov4Cis (setting [2]), 0.121.
As to `O=C1O[C@H]([C@@H](O)CO)C(O)=C1O` [Vitamin C (Ascorbic acid)], the log2 surviving fraction with OVCAR4 (setting [1]) was 0.891 ± 0.011; in the experiment with OVCAR4 (setting [2]), 0.21 ± 0.64; in the experiment with Ov4Carbo (setting [1]) it was -0.995; in the experiment on Ov4Carbo (setting [2]) it was 0.603; in the experiment on Ov4Cis (setting [1]) it was 0.316; in the experiment with Ov4Cis (setting [2]) it was 0.567.
Turning to `Nc1nc(Cl)nc2c1ncn2[C@H]1C[C@H](O)[C@@H](CO)O1` [Cladribine], the log2 surviving fraction with OVCAR4 (setting [1]) is -3.31 ± 0.44; in the experiment on OVCAR4 (setting [2]), -4.02 ± 1.4; in the experiment on Ov4Carbo (setting [1]) it was -4.47; with Ov4Carbo (setting [2]) it was -7.25; in the experiment with Ov4Cis (setting [1]), -4.19; with Ov4Cis (setting [2]), -6.43.
For `Cc1cccc(N(C)C(=S)Oc2ccc3ccccc3c2)c1` [Tolnaftate], the log2 surviving fraction was 0.609 ± 0.6 in the experiment on OVCAR4 (setting [1]); -0.732 ± 1.1 with OVCAR4 (setting [2]); 0.355 in the experiment on Ov4Carbo (setting [1]); 0.675 in the experiment on Ov4Carbo (setting [2]); -0.0701 in the experiment with Ov4Cis (setting [1]); 0.738 with Ov4Cis (setting [2]).
In the case of `CNCCc1ccccn1` [Betahistine 2HCl], the log2 surviving fraction in the experiment with OVCAR4 (setting [1]) is -0.162 ± 0.16; in the experiment on OVCAR4 (setting [2]), 0.153 ± 0.28; in the experiment on Ov4Carbo (setting [1]), 0.373; in the experiment with Ov4Carbo (setting [2]) it was 0.137; in the experiment on Ov4Cis (setting [1]), -0.65; in the experiment on Ov4Cis (setting [2]), 0.237.
In the case of `CC(C)=CC1C(C(=O)OCc2cccc(Oc3ccccc3)c2)C1(C)C` (configuration not stated) [Phenothrin], the log2 surviving fraction with OVCAR4 (setting [1]) is -0.8443 ± 0.0023; with OVCAR4 (setting [2]), -0.969 ± 0.76; in the experiment with Ov4Carbo (setting [1]), -0.949; in the experiment with Ov4Carbo (setting [2]), -1.17; with Ov4Cis (setting [1]), 0.0513; with Ov4Cis (setting [2]) it was -0.85.
Regarding `CC(C)(C)C(=O)OCOP(=O)(COCCn1cnc2c(N)ncnc21)OCOC(=O)C(C)(C)C` [Adefovir Dipivoxil (Preveon, Hepsera)], the log2 surviving fraction in the experiment on OVCAR4 (setting [1]) is -1.4 ± 0.92; with OVCAR4 (setting [2]), -2.37 ± 1.3; with Ov4Carbo (setting [1]), 0.505; in the experiment on Ov4Carbo (setting [2]), 0.683; with Ov4Cis (setting [1]) it was -1.25; in the experiment on Ov4Cis (setting [2]) it was -3.88.
Consider `CC[C@H](C)[C@H](N)C1=N[C@H](C(=O)N[C@@H](CC(C)C)C(=O)N[C@H](CCC(=O)O)C(=O)N[C@H](C(=O)N[C@H]2CCCCNC(=O)[C@H](CC(N)=O)NC(=O)[C@@H](CC(=O)O)NC(=O)[C@H](Cc3cnc[nH]3)NC(=O)[C@@H](Cc3ccccc3)NC(=O)[C@H]([C@@H](C)CC)NC(=O)[C@@H](CCCN)NC2=O)[C@@H](C)CC)CS1` [Bacitracin], for which the log2 surviving fraction was found to be 0.699 ± 0.3 in the experiment on OVCAR4 (setting [1]); 0.906 ± 0.84 in the experiment on OVCAR4 (setting [2]); 0.646 in the experiment with Ov4Carbo (setting [1]); 1.08 in the experiment with Ov4Carbo (setting [2]); 0.336 with Ov4Cis (setting [1]); 0.724 with Ov4Cis (setting [2]).
On to `CCCCCCCCCC(=O)N[C@H]1[C@H](Oc2c3cc4cc2Oc2ccc(cc2Cl)[C@@H](O[C@@H]2O[C@H](CO)[C@@H](O)[C@H](O)[C@H]2NC(C)=O)[C@@H]2NC(=O)[C@H](NC(=O)[C@@H]4NC(=O)[C@H]4NC(=O)[C@@H](Cc5ccc(c(Cl)c5)O3)NC(=O)[C@H](N)c3ccc(O)c(c3)Oc3cc(O)cc4c3)c3ccc(O)c(c3)-c3c(OC4O[C@H](CO)[C@@H](O)[C@H](O)[C@@H]4O)cc(O)cc3[C@@H](C(=O)O)NC2=O)O[C@H](CO)[C@@H](O)[C@@H]1O` (some centres not stated) [Teicoplanin], for which the log2 surviving fraction with OVCAR4 (setting [1]) is -0.194 ± 0.31; in the experiment on OVCAR4 (setting [2]), -0.124 ± 0.66; with Ov4Carbo (setting [1]), -0.359; with Ov4Carbo (setting [2]) it was 1.47; in the experiment with Ov4Cis (setting [1]) it was 0.144; with Ov4Cis (setting [2]), -0.177.

The values above are taken from the supplement of paper PMC8813932.
